Measurements taken from the BET-seq Pho4 binding data (Le et al. 2018).
This is one part of the list. The energies were worked out here from pooled read counts, against the library average; single values are noisy.

The sequences below were run against T1, Pho4 (S. cerevisiae) (UniProt P07270) (assay: relative binding free energy (BET-seq); higher = weaker binding). Details: reference: library average.
T1 sequence: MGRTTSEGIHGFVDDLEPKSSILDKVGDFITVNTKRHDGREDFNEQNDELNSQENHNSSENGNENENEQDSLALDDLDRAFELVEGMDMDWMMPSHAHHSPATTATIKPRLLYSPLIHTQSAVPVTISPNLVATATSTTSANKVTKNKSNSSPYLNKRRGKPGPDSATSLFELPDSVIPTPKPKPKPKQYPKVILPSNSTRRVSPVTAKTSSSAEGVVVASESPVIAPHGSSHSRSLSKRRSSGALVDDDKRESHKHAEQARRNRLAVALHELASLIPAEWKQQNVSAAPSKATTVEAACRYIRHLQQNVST

Sequence	relative binding free energy
CCTGGCACGTGGGGAG	-0.18 kcal/mol
ATCTTCACGTGGGGAG	0.07 kcal/mol
CGAAGCACGTGGCGGG	-0.17 kcal/mol
GCGTCCACGTGGTTGT	0.1 kcal/mol
AGAGTCACGTGGTAAA	0.25 kcal/mol
TGGCACACGTGTGCTG	0.15 kcal/mol
ATGGACACGTGGGTCT	-0.02 kcal/mol
ATTGACACGTGTTGTA	-0.07 kcal/mol
TGGTTCACGTGGTTGT	0.29 kcal/mol
AAGGCCACGTGTATGG	0 kcal/mol
GCTTGCACGTGTGCTG	0.01 kcal/mol
GGATTCACGTGGAGGT	0.38 kcal/mol
CGTAACACGTGAGAGG	0.29 kcal/mol
GGTGCCACGTGAGTGC	0.21 kcal/mol
GGTACCACGTGATGGG	0.18 kcal/mol
CAGTGCACGTGTTTTG	-0.12 kcal/mol
TTGTTCACGTGACCTT	0.44 kcal/mol
GAGGTCACGTGCTTGT	0.1 kcal/mol
CGGAGCACGTGGTGGC	-0.18 kcal/mol
TCCAGCACGTGGGGTT	-0.14 kcal/mol
TTTGGCACGTGACAAG	-0.07 kcal/mol
ACGTACACGTGTTTTT	0.08 kcal/mol
TAGCTCACGTGTGGGT	0.28 kcal/mol
ATATACACGTGTGCGG	0.1 kcal/mol
TACGTCACGTGTAGGC	0.15 kcal/mol
AGGGACACGTGATAGG	0.07 kcal/mol

Sequence	relative binding free energy
TGGTACACGTGTGCAG	0.2 kcal/mol
AGTGACACGTGGTAGC	0.03 kcal/mol
GTTTACACGTGTGTCA	0.17 kcal/mol
TAGATCACGTGTGCGT	-0.01 kcal/mol
CTGGTCACGTGTAATG	0.14 kcal/mol
ATATGCACGTGCAGGT	-0.07 kcal/mol
TTCGTCACGTGTGCGA	0.06 kcal/mol
GGTGCCACGTGAGTCG	0.27 kcal/mol
GTTTTCACGTGAGATT	0.31 kcal/mol
CAGTGCACGTGGCGTG	-0.27 kcal/mol
GTAGGCACGTGTGAGC	0.03 kcal/mol
TTTGTCACGTGGCGAT	0 kcal/mol
GTATGCACGTGAAAGT	0.23 kcal/mol
CGTTTCACGTGGATGT	0.29 kcal/mol
ACGCGCACGTGGTGGG	-0.32 kcal/mol
ATGTCCACGTGGTATT	-0.04 kcal/mol
GGGCACACGTGTGTAG	0.16 kcal/mol
TACCGCACGTGGAGGT	0.02 kcal/mol
GTGGGCACGTGGAATG	0.12 kcal/mol
TGCGTCACGTGATCGG	0.1 kcal/mol
TTGTACACGTGTTCAT	-0.05 kcal/mol
ATGTTCACGTGGGCTT	0.22 kcal/mol
GTTTACACGTGTTTGA	0.26 kcal/mol
ATAAACACGTGTGTTT	0.03 kcal/mol
TTAATCACGTGACGTG	0.11 kcal/mol
AGTATCACGTGTGTTC	0.13 kcal/mol

Sequence	relative binding free energy
TGTGACACGTGAGCAG	0.12 kcal/mol
TGGATCACGTGGCATG	0.1 kcal/mol
GGAGGCACGTGGGGCT	-0.24 kcal/mol
TTATACACGTGCTAGG	0.09 kcal/mol
AATTACACGTGAGTGT	0.02 kcal/mol
CAAGGCACGTGTGGGC	-0.13 kcal/mol
GGAAGCACGTGATGGA	0.09 kcal/mol
TTGTTCACGTGGGCGG	0.23 kcal/mol
AGTTTCACGTGGTACA	0.08 kcal/mol
CGGGTCACGTGTTCGG	0.17 kcal/mol
GAATGCACGTGTCGTG	-0.06 kcal/mol
TGTTCCACGTGGGTCT	-0.08 kcal/mol
AGGTGCACGTGAGAAT	0.22 kcal/mol
ATAGTCACGTGTGTTT	0.25 kcal/mol
AAGTTCACGTGGGTCC	0.34 kcal/mol
TTGAACACGTGTAGTA	0.04 kcal/mol
TTAGGCACGTGGTTCT	-0.17 kcal/mol
TTCATCACGTGGATTG	0.14 kcal/mol
ATTTGCACGTGTAGTA	0.04 kcal/mol
AGCGTCACGTGGGTTG	-0.06 kcal/mol
TGTCGCACGTGCGTTG	-0.17 kcal/mol
TAGCTCACGTGGGCGG	-0.04 kcal/mol
AATCTCACGTGGGAGG	0.31 kcal/mol
CGAGTCACGTGTGAGT	0.19 kcal/mol
TGACACACGTGGGGAG	-0.02 kcal/mol
AAGGGCACGTGCAGTT	-0.14 kcal/mol

Sequence	relative binding free energy
TATTCCACGTGTGTTT	-0.03 kcal/mol
TGAGGCACGTGCCAGG	-0.16 kcal/mol
GTGTTCACGTGACTGT	0.34 kcal/mol
TTTGACACGTGCATTT	-0.01 kcal/mol
TGGTGCACGTGGCCGA	-0.11 kcal/mol
TTATTCACGTGATATA	0.27 kcal/mol
AGCTGCACGTGTTTGG	0.14 kcal/mol
TGCGTCACGTGTTCGT	0.03 kcal/mol
GTCTTCACGTGAATGG	0.43 kcal/mol
AGCGCCACGTGAGGGG	0.09 kcal/mol
ATTTTCACGTGGAGCG	0.23 kcal/mol
GTTAACACGTGACGGG	0.12 kcal/mol
GAGATCACGTGGATTT	0.28 kcal/mol
CTATGCACGTGAAGTG	0.13 kcal/mol
GTGGACACGTGAGTTA	0.2 kcal/mol
GGAGTCACGTGTCAGT	0.29 kcal/mol
TTATGCACGTGTTAAT	-0.13 kcal/mol
TACGGCACGTGTGTGT	-0.04 kcal/mol
AGGATCACGTGGGTGG	0.04 kcal/mol
TAATTCACGTGTATAG	0.05 kcal/mol
TACGACACGTGGGGTA	-0.16 kcal/mol
GTGTTCACGTGATGCG	0.15 kcal/mol
ATAATCACGTGTAGGG	0.04 kcal/mol
GCGGTCACGTGGGGTG	-0.03 kcal/mol
GAGTTCACGTGGTCGC	0.31 kcal/mol
GGCGCCACGTGGAGTA	0.09 kcal/mol

Sequence	relative binding free energy
CTTCTCACGTGTGCTT	0.44 kcal/mol
TTTCGCACGTGGGCGT	-0.19 kcal/mol
GTGGGCACGTGCAGTA	-0.11 kcal/mol
AGGTGCACGTGTGGTG	0.01 kcal/mol
GTTTTCACGTGGGGGC	0.32 kcal/mol
TTTTACACGTGGATGG	0.12 kcal/mol
AGACGCACGTGTTTGA	0.03 kcal/mol
TGTATCACGTGCTTCT	0.08 kcal/mol
GACGTCACGTGGGGAG	-0.06 kcal/mol
CGAAGCACGTGGTTGT	-0.1 kcal/mol
AAGAGCACGTGCTGGG	-0.23 kcal/mol
TTGCGCACGTGTTCGT	-0.13 kcal/mol
ATGATCACGTGATTTT	0.26 kcal/mol
TAGCTCACGTGGAGGG	0.26 kcal/mol
GATTTCACGTGTGGGC	0.37 kcal/mol
CTTTTCACGTGGGAGA	0.21 kcal/mol
TGGTTCACGTGGTCTG	0.16 kcal/mol
GGTCTCACGTGGTGTG	0.24 kcal/mol
ATGCGCACGTGTGGCG	-0.18 kcal/mol
GTGTTCACGTGGCGAT	0.24 kcal/mol
TGATGCACGTGATTTG	0.15 kcal/mol
TAGGTCACGTGTCGCG	0.1 kcal/mol
GCTCTCACGTGGGGTG	0.06 kcal/mol
CGTAGCACGTGTGTGC	-0.07 kcal/mol
GATGTCACGTGGTCGT	0.13 kcal/mol
TAGTCCACGTGGGAGG	0.02 kcal/mol

Sequence	relative binding free energy
ATGTCCACGTGGTGAT	-0.02 kcal/mol
ATCAGCACGTGGGGGG	-0.09 kcal/mol
TGGCACACGTGGGCGG	-0.12 kcal/mol
TTTTACACGTGATTCA	0.13 kcal/mol
GATATCACGTGGGTTA	0.05 kcal/mol
TTGGACACGTGGAGGA	-0.01 kcal/mol
CTTAGCACGTGTGGGA	-0.04 kcal/mol
AAAAACACGTGTGGTG	-0.02 kcal/mol
GTTCACACGTGTGTTA	0.15 kcal/mol
GGTTTCACGTGCTAAG	0.27 kcal/mol
GGGTACACGTGAAGCA	0.37 kcal/mol
GTAGTCACGTGCGGTA	-0.2 kcal/mol
GTGTCCACGTGAGGCG	0.18 kcal/mol
TGGGTCACGTGTTGCG	0.13 kcal/mol
GAAGGCACGTGTGATG	0.08 kcal/mol
CAGTTCACGTGGGGGC	0.14 kcal/mol
ATTATCACGTGAATGG	0.28 kcal/mol
GTTCGCACGTGGTATG	-0.02 kcal/mol
ATATTCACGTGCCGGG	0.22 kcal/mol
GTGGGCACGTGTCGTT	-0.06 kcal/mol
AGGTACACGTGACTGG	0.08 kcal/mol
TGACGCACGTGATGGA	0.06 kcal/mol
TTTTTCACGTGTTGGA	0.29 kcal/mol
CTGAGCACGTGTAGTG	0.03 kcal/mol
GGAGTCACGTGAGCGC	0.42 kcal/mol
GTTATCACGTGTCTTA	0.09 kcal/mol

Sequence	relative binding free energy
ATAGTCACGTGTGACT	0.19 kcal/mol
ATTTTCACGTGTCTGG	0.24 kcal/mol
GTGGCCACGTGGGTGG	-0.16 kcal/mol
GGTGACACGTGTCGCG	0.12 kcal/mol
ATGGTCACGTGAGTTG	0.36 kcal/mol
CTTGTCACGTGATTGG	0.27 kcal/mol
TGTTTCACGTGGGAGG	0.2 kcal/mol
TTGATCACGTGTTATG	0.16 kcal/mol
AGGGTCACGTGGCGCG	-0.03 kcal/mol
TATGTCACGTGTCTGG	0.12 kcal/mol
TAGGTCACGTGTTTTC	0.32 kcal/mol
TTTTGCACGTGTCGCG	-0.2 kcal/mol
GCAGTCACGTGGTGTG	-0.01 kcal/mol
TCCTGCACGTGTTTGT	-0.09 kcal/mol
AGATGCACGTGGTCGG	-0.07 kcal/mol
CGATTCACGTGTTGTA	0.33 kcal/mol
GTGATCACGTGTGCTA	0.14 kcal/mol
ATGGTCACGTGCAAGG	0.16 kcal/mol
GATTGCACGTGAGTTT	0.42 kcal/mol
TTCTTCACGTGGGCGA	0.31 kcal/mol
GTGTACACGTGTATGG	0.01 kcal/mol
TTTTTCACGTGGTTGC	0.28 kcal/mol
TAGAGCACGTGGTGGG	-0.12 kcal/mol
TATATCACGTGTATCT	0.07 kcal/mol
GTCGACACGTGAGGGG	0.31 kcal/mol
CGAAGCACGTGGGGAG	-0.19 kcal/mol

Sequence	relative binding free energy
CAAGTCACGTGAAGGG	0.33 kcal/mol
TGTAGCACGTGTGGTG	-0.01 kcal/mol
ATTGGCACGTGCTGTG	-0.18 kcal/mol
TCGGTCACGTGTGTTC	0.2 kcal/mol
GAGGGCACGTGATCGG	0.13 kcal/mol
TTTTTCACGTGGTGGC	0.38 kcal/mol
ATCGTCACGTGGTATG	-0.03 kcal/mol
CCGTTCACGTGGGTGC	0.23 kcal/mol
AGTCTCACGTGATTGG	0.17 kcal/mol
GGGTACACGTGGACGG	0.08 kcal/mol
TTACTCACGTGTTAGG	0.14 kcal/mol
GTAGACACGTGGGTTA	-0.12 kcal/mol
GAGTACACGTGTGATG	0.12 kcal/mol
ATAAGCACGTGGTTGT	-0.21 kcal/mol
GGATTCACGTGAGGGA	0.36 kcal/mol
ATTATCACGTGTGGAG	0.1 kcal/mol
TTCGACACGTGTGCGG	-0.01 kcal/mol
TAGGGCACGTGTTATA	-0.17 kcal/mol
ATGAGCACGTGGTGAC	-0.11 kcal/mol
TTTGTCACGTGGGGAT	0.01 kcal/mol
TAGAGCACGTGGCGGC	-0.17 kcal/mol
GTTTCCACGTGATTGA	0.4 kcal/mol
AAGTACACGTGCGTGG	-0.05 kcal/mol
TTTTGCACGTGTGAAG	0.08 kcal/mol
TTTAACACGTGGGAGA	-0.18 kcal/mol
AATCGCACGTGGGCGT	-0.15 kcal/mol

Sequence	relative binding free energy
TCCGCCACGTGTTGGT	0.14 kcal/mol
TTATGCACGTGTCGTG	0.04 kcal/mol
AGTGACACGTGTTAGG	0.06 kcal/mol
TTTGGCACGTGGAAAA	-0.14 kcal/mol
TTGATCACGTGGGATG	0.03 kcal/mol
GAGGGCACGTGTAGCG	0.02 kcal/mol
TTGTTCACGTGATGCA	0.25 kcal/mol
GTGTACACGTGAGGGT	0.34 kcal/mol
TATAGCACGTGCAGGG	-0.12 kcal/mol
TGTTTCACGTGATGGG	0.44 kcal/mol
CTTGTCACGTGTTAGT	0.05 kcal/mol
TAGTACACGTGTCGGG	0.22 kcal/mol
GTAGGCACGTGGCCGG	-0.13 kcal/mol
GTATTCACGTGAGGGC	0.42 kcal/mol
AAGGGCACGTGTGGAG	-0.11 kcal/mol
AATTTCACGTGTACTT	0.2 kcal/mol
GGAATCACGTGTTAAG	0.19 kcal/mol
CTGGCCACGTGCGTGG	-0.18 kcal/mol
GTCTGCACGTGGGATT	0.05 kcal/mol
TACGTCACGTGAATGT	0.27 kcal/mol
TTAATCACGTGGGTAT	-0.03 kcal/mol
TGGAACACGTGCATGT	0.2 kcal/mol
